# Test results taken from PubChem BioAssay AID1458 (National Center for Advancing Translational Sciences (NCATS), 2008).
# Hit rate of the full screen: of about 210,000 compounds, about 5,900 (2.8%) were called active. The shares of active, inactive and inconclusive entries below differ from those in the screen. The call rests on the fitted dose curve; in most records, active means well fitted activation curve with a large enough effect; inconclusive means small, poorly fitted or top-dose-only effect; inactive means no such curve, though single readings can be large or run the other way. Potencies of inconclusive entries are doubtful fits and often do not repeat.
# Assay: qHTS Assay for Enhancers of SMN2 Splice Variant Expression; further: nearly all actives have a fitted effect of over 55% in size; on activity change, positive = activation: % of control where 0% means no effect
# Conditions: HEK293 SMN2-luciferase splicing reporter, luminescence, 30-36 h; activity change, positive = activation: at 46.1 µM (top of the series)
# Method in brief: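 HEK293 cells carry an SMN2 minigene-luciferase reporter in which exon 7 inclusion puts luciferase in frame. Cells were seeded at 2000 cells/well, attached for 10-12 hours, then exposed to compounds for 30-36 hours at 37C before ONE-Glo luminescence.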
# Potency means the concentration at half of the fitted maximal effect; tags describe the fitted curve by direction and shape.
Compound,Potency,"activity change, positive = activation"
Cc1c(NC(=O)CSc2nnc3c4ccccc4n(CCc4ccccc4)c3n2)c(=O)n(-c2ccccc2)n1C,active: 3.16 µM,
CCc1ccc(OCC(=O)N(Cc2ccc(C)o2)C2CCS(=O)(=O)C2)cc1 (stereo not drawn),,inactive: 15.8%
CCOC(=O)c1c(-c2ccc(OC)cc2)csc1NC(=O)CCN1C(=O)c2ccccc2C1=O,,inactive: -18.7%
COc1cc2cccc(OC)c(=O)c2c(OC)c1OC,"inconclusive: 12.6 µM [activator, partial curve, poor fit]",
Cc1ccccc1NC(=O)Nc1nc2ccc(S(C)(=O)=O)cc2s1,"inconclusive: 4.47 µM [activator, single point]",
COC(=O)c1sccc1NC(=O)COc1ccccc1Cl,"inconclusive: 35.5 µM [activator, single point]",
CN1C=CC=C/C1=C1/N=C(c2ccccc2)OC1=O,"inconclusive: 12.6 µM [activator, single point]",
Cc1ccc(NC(=O)c2ccc(OC(=O)CCN3C(=O)c4ccccc4C3=O)cc2)cc1,active: 14.1 µM,
Cc1ccc2nc(-c3ccc(NS(=O)(=O)c4ccc(F)c(F)c4)cc3)sc2c1,"inconclusive: 11.2 µM [activator, partial curve]",
COc1cccc(C2NC(=O)c3ccccc3O2)c1OC (stereo not drawn),,inactive: -14.6%
CC(C)Sc1nc2sc(-c3ccccc3)cc2c(=O)n1N,,inactive: 2.03%
COc1ccc(-c2cc(C(=O)Oc3ccc([N+](=O)[O-])cc3)c3ccccc3n2)cc1,"inconclusive: 12.6 µM [activator, partial curve]",
CCOc1cccc(N(C(=O)Cc2cccs2)C(C(=O)NC2CCCCC2)c2cccn2C)c1 (stereo not drawn),"inconclusive: 15.8 µM [activator, single point]",
COc1cccc(C(=O)NC(=S)NCc2ccco2)c1,"inconclusive: 1.58 µM [activator, full curve, poor fit]",
O=C(CSc1ccc(-c2cccs2)nn1)c1cccs1,"inconclusive: 35.5 µM [activator, single point]",
CCN(CC)Cc1c(O)c(Cl)cc2c(C)cc(=O)oc12,"inconclusive: 0.0158 µM [activator, full curve, poor fit]",
N#CCCn1c(=O)c(-c2cc(F)cc(F)c2)nc2cnc(Oc3cccc(Cl)c3)nc21,,inactive: -38.3%
O=C(CNC(=O)c1ccco1)NCCCc1ccccc1,"inconclusive: 0.891 µM [activator, full curve, poor fit]",
COc1cc2c(cc1OC)C(COc1ccc3c(C)cc(=O)oc3c1)N(C(=O)c1ccccc1F)CC2 (stereo not drawn),,inactive: 4.29%

Compound,Potency,"activity change, positive = activation"
COc1ccc(CCNc2nc3c(-c4cccc(F)c4)nnn3c3ccccc23)cc1OC,,inactive: -4.52%
Cc1cccc(-n2ncc3c(NCCCO)ncnc32)c1,active: 11.2 µM,
CC(=O)N1c2ccccc2CC1C(=O)NCc1cccc(Cl)c1 (stereo not drawn),,inactive: 14.2%
CC(OCCN1CCCC1)(c1ccc(F)cc1)c1ccc(F)cc1,"inconclusive: 10 µM [activator, partial curve]",
CC(C)C[C@@H](CC(=O)N[C@@H](CCC(=O)O)CC(=O)O)NC(=O)[C@@H]1CNCC[C@H]1NC(=O)C[C@@H](NC(=O)C[C@H](Cc1ccccc1)NC(=O)[C@@H]1CNCC[C@H]1N)C(C)C,,inactive: -1.45%
COc1ccc(C2C(C(N)=O)=C(C)Nc3nc(-c4cccc(Cl)c4)nn32)cc1OC (stereo not drawn),active: 17.8 µM,
CC(C)Cc1cc(C(=O)Nc2sc3c(c2C#N)CCC3)no1,,inactive: -6.12%
CC1(C)CC(C(CC(=O)O)c2ccccc2)CCO1 (stereo not drawn),"inconclusive: 6.31 µM [activator, partial curve, poor fit]",
CCOc1ccc(-c2nnc(-c3ccc(OC)cc3)o2)cc1,,inactive: -5.53%
CSc1nc2ccc(NC(=O)C3CCCO3)cc2s1 (stereo not drawn),active: 12.6 µM,
CCOC(=O)c1[nH]c2ccc(OC)cc2c1NC(=O)CN1CCc2ccccc2C1,,inactive: -13.1%
CCOC(=O)c1ccc(CNCc2ccccc2)cc1,"inconclusive: 12.6 µM [activator, single point]",
CCOC(=O)C1CCN(C(=O)c2cc3ccccc3oc2=O)CC1,,inconclusive: 30.7% [activator]
COc1ccc(-c2cc3nc(C)cc(N)n3n2)cc1,active: 1.12 µM,
c1ccc2c(c1)CCN(c1nc(CN3CCOCC3)nc3sc4c(c13)CCCC4)C2,"inconclusive: 5.62 µM [activator, single point]",
O=c1nc(Nc2ccc(OCc3ccccc3)cc2)sc2ncccc12,active: 3.55 µM,
Cc1nnc(NC(=O)c2cccc(F)c2)s1,,inactive: 10.2%
COc1cc(-c2nc3n(n2)C(c2ccncc2)C2=C(CCCC2=O)N3)cc(OC)c1OC (stereo not drawn),"inconclusive: 35.5 µM [activator, single point]",
Cc1cccc(N=Nc2c(C)[nH]n(C(N)=S)c2=O)c1C,"inconclusive: 25.1 µM [activator, single point]",
